Measurements published in paper PMC3610928.
Read-outs that look alike come from different tables or passages of the source. No constants are given. Whether binding was seen depends on the method and setting. Some results given as binding are weak or reduced against the parent protein; the word gives no strength.

By UniProt entry, the sequences of proteins in these tests, tags left out. Where a name states a change or a piece, a line headed by the entry shows the natural chain unless it says otherwise. Residues count along the entry.
UniProt Q12306, residues 1-96: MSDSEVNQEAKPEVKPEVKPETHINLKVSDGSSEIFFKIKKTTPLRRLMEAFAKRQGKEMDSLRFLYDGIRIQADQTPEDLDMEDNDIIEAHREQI

Experiments:
Assay in all cases: two-hybrid; cir^0 two-hybrid reporter yeast strain CTMD/3a co-transformed with Gal4AD and LexA fusion plasmids; co-transformants grown 24 h on a nitrocellulose membrane; lacZ reporter, β-galactosidase filter assay with X-gal
[1] = target: T1, Rep1 (2 µm plasmid partitioning protein), wild type (S. cerevisiae (2 µm plasmid)) (UniProt P03871)
T1 sequence: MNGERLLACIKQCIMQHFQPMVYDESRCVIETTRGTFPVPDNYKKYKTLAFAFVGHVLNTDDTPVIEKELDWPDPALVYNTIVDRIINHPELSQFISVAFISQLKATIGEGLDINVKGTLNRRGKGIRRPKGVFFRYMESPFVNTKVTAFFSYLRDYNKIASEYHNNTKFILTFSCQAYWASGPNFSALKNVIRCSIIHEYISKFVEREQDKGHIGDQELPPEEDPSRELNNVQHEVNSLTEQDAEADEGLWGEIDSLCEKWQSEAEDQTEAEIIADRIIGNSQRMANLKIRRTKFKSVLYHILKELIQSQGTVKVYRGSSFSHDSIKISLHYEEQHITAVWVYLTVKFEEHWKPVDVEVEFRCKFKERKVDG

[2] = target: T2, Nis1 SUMO interaction-motif-containing domain (residues 357–408) (yeast (S. cerevisiae)) (UniProt P53939)
T2 sequence: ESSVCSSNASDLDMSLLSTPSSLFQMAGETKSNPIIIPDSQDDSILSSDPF

[3] = target: T3, Rep2 (2 µm plasmid partitioning protein), wild type (S. cerevisiae (2 µm plasmid)) (UniProt P03872)
T3 sequence: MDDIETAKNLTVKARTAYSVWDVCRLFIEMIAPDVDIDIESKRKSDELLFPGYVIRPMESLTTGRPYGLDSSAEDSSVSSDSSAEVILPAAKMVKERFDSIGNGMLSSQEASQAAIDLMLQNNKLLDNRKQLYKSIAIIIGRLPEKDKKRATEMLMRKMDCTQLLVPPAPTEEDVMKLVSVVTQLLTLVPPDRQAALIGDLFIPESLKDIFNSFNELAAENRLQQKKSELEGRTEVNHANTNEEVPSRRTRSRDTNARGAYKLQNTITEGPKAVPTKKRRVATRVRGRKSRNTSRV

[4] = target: T1, Rep1 (2 µm plasmid partitioning protein), wild type (S. cerevisiae (2 µm plasmid)); remark: listed apart in the source
[5] = target: T4, Rep1_(I202T) (S. cerevisiae (2 µm plasmid)) (UniProt P03871)
T4 sequence: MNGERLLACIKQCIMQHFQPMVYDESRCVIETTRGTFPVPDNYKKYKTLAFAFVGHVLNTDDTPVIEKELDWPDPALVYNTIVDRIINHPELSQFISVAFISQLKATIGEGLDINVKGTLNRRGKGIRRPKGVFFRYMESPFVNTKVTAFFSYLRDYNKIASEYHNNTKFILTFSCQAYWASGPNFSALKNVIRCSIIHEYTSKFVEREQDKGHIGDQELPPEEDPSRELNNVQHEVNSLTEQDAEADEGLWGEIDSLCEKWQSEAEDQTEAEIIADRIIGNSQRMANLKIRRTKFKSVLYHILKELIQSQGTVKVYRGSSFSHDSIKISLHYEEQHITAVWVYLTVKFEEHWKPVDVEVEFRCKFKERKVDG

[6] = target: T5, Rep1-K305,315,328R (Rep1_(3R)) (S. cerevisiae (2 µm plasmid)) (UniProt P03871)
T5 sequence: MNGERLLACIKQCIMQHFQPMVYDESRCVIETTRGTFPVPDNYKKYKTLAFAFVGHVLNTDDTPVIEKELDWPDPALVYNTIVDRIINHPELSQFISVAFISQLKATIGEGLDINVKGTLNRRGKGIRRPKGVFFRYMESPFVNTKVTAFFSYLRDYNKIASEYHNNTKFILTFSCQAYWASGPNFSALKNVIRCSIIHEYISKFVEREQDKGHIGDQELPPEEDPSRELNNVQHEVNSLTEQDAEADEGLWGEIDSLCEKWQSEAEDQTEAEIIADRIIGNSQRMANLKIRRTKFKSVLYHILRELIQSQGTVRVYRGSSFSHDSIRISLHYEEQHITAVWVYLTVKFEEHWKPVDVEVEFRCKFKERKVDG

Q: “SUMOΔGG (conjugation-defective SUMO lacking the two C-terminal glycine residues) (from UniProt Q12306 1-96) (domain or fragment)” was tested. Which binding [1] did it give?
A: The binding was “no binding”.

Q: And the binding [2]?
A: Its binding is “binds”.

Q: What about the binding [3] of the same molecule?
A: The binding was “no binding”.

B1: Rep2 (2 µm plasmid partitioning protein), wild type (protein, UniProt P03872 1-296)
chain: MDDIETAKNLTVKARTAYSVWDVCRLFIEMIAPDVDIDIESKRKSDELLFPGYVIRPMESLTTGRPYGLDSSAEDSSVSSDSSAEVILPAAKMVKERFDSIGNGMLSSQEASQAAIDLMLQNNKLLDNRKQLYKSIAIIIGRLPEKDKKRATEMLMRKMDCTQLLVPPAPTEEDVMKLVSVVTQLLTLVPPDRQAALIGDLFIPESLKDIFNSFNELAAENRLQQKKSELEGRTEVNHANTNEEVPSRRTRSRDTNARGAYKLQNTITEGPKAVPTKKRRVATRVRGRKSRNTSRV
Q: What does the source list for B1?
A: binding [4]: binds; binding [5]: binds

B2: Rep2-K42,44,92,124,130,134,146,148,149,177,208,226,227R (Rep2_(13R)) (protein, UniProt P03872 1-296)
chain: MDDIETAKNLTVKARTAYSVWDVCRLFIEMIAPDVDIDIESRRRSDELLFPGYVIRPMESLTTGRPYGLDSSAEDSSVSSDSSAEVILPAARMVKERFDSIGNGMLSSQEASQAAIDLMLQNNRLLDNRRQLYRSIAIIIGRLPERDRRRATEMLMRKMDCTQLLVPPAPTEEDVMRLVSVVTQLLTLVPPDRQAALIGDLFIPESLRDIFNSFNELAAENRLQQRRSELEGRTEVNHANTNEEVPSRRTRSRDTNARGAYKLQNTITEGPKAVPTKKRRVATRVRGRKSRNTSRV
Q: B2 was tested. Which binding [6] did it give?
A: Its binding is “binds”.
